According to the supplement of paper PMC11417369:
± gives the standard deviation of the averaged measurements. Some of the results follow.

test system: PfAP2-G AP2 domain (GST-tagged); assay: gcPBM binding intensity (ln(normalized median fluorescence intensity)); higher = stronger DNA binding
Summary of the method: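 Binding of GST-tagged P. falciparum DNA-binding domains, expressed in E. coli and used at about 25 μg on average, was carried out for 1 h in 1× PBS containing 1% milk, 0.2 mg/ml BSA, 0.5% salmon testes DNA and 0.03% Triton X-100. The target was an Agilent 4 × 180k array of primer-extended double-stranded 36-bp intergenic genomic probes plus negative controls, read with Alexa488 anti-GST antibody at 488 nm. Binding intensity is the highest Masliner-normalised natural-log median intensity across replicate spots of either probe orientation.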

Sequence	gcPBM binding intensity (ln)
TCAAAACATTATTCCATACACACCATACTTTTTAAT [CACACA_site2770]	10.18 ± 0.078
GAATTATAAATTATAGTGCATAAAATTATGGCATAA [GTGCAC_site9938]	9.99 ± 0.14
TTGAATTATAAGAATAAACACACAAGCTTAAAAAAA [CACACA_site8318]	9.93 ± 0.042
TATTTAAATTTGTATAATGGACGAATTATATAGAAA [GTGCAC_negctrl_site650]	10.6 ± 0.54
CCCACAGACGGACACACACACATATATATATATATA [CACACA_site4351]	11.6 ± 1.2
ATATAATATATATATAAACACACAAAAAAAATTATA [CACACA_site8434]	10.125 ± 0.007
AATAAAATCATCTATACACACAAAAAAAATAAGAAA [CACACA_site2101]	9.965 ± 0.049
TTAAGAAACAAAGAAAGTACACAACATAATATAGAA [XGTACX_site477]	11.4 ± 0.69
AATAACCACGGACACACACACATATATATATATATA [CACACA_site5873]	11.2 ± 0.78
ATTATAATACTTTGTATGCACTAATCAATTATTAAA	10.1 ± 0.28
ACATAAAATTGGAGCAAACACACAAGGTTGAAATTA [CACACA_site505]	9.91 ± 0.15
TTTGTTATGGTTTTCTCACACATATATATATATATA [CACACA_site4617]	10.3 ± 0.39
CCGATATAATGGAAAACACACAAAAGATATTTATAT [CACACA_site7293]	9.88
TACAACCTTATAATTAGTACTTAGTTATGCTGTAAA [XGTACX_site6052]	10.8 ± 0.46
TTTAATTTTTTTTATAGTACATAAAAAATAAAAAAA [XGTACX_site5631]	11.2 ± 0.83
TTTATTTGTGCATATACACACTTAAATATGTTTATT [CACACA_site7772]	10.1 ± 0.13
CTGTAAAAAATATAAACACACATAGAAATATATAAA [CACACA_site340]	9.84 ± 0.099
CCTCATAAGTTCTTATGTACGTATTGTTCACCTTTA [XGTACX_site6640]	11.6 ± 0.84
ATAATAAAAAAAAATGCACACATATATATATATATA [CACACA_site8766]	10.1 ± 0.64
AATTTTAAGAGCTATACATGCACTTCATAAAAAGTG [TGCATGCA_site180]	10.5 ± 0.42
TTAATATTTAGACATGCATGCTAATTACTATATATA [TGCATGCA_site27]	9.725 ± 0.007
AATATATATATATATACACACACACCGATATATATA [CACACA_site8158]	9.9 ± 0.028
TAACAATTAATAAAAGGTACACTTGAATATGCACCA [XGTACX_site2717]	11.2 ± 0.73

Sequence	gcPBM binding intensity (ln)
TTATAATATATATACAGTACATATATAAAATAATAT [XGTACX_site5917]	10.8 ± 0.5
TAATATAAAGAAAAGGAACACACAAATATATATATA [CACACA_site8049]	9.9 ± 0.26
TTTTCTTGGTTCAGTGTGCACTTATATATATATATA	10.6 ± 0.39
TTATTTTATAATAAAAGTACACAAAAAAAAAAAAAA [XGTACX_site7668]	11.4 ± 1.1
TTATTTCTCTTTTCAGTGCATTTTATAACAAAAAAA [GTGCAC_site9930]	10.3 ± 0.34
ATATATATAATATGCGGTACACATTAATTAAATCAT [XGTACX_site5702]	11.2 ± 0.67
TTATAAATATAAAAATGTACAGAAAAAAAAAATAAA [XGTACX_site863]	11.1 ± 0.79
ATAGAACTATATTGCACACATAATATATATATATAT [CACACA_site3189]	10.2 ± 0.17
GTAAAAAATATGACAAGTACAAGAAAAGAAAAAAGT [XGTACX_site7906]	11.3 ± 0.7
AAAAGATTTATACATACACACATATTATATTCACAT [CACACA_site3713]	9.93 ± 0.2
TTTCAAAAATGAGTTACACACACACGGATATAAATA [CACACA_site7116]	10.2 ± 0.2
GAATATAAAATATATATATATATATATATATATATA [GTGCAC_negctrl_site425]	9.7 ± 0.56
GTAGAGCATAATAAAACACACACATACATACATATA [CACACA_site8217]	10.025 ± 0.007
TTATTGCATTGTTTTTATAAAAAAAAAAAAAAAATT [XGTACX_negctrl_site104]	9.84 ± 0.16
CTATTTCATGGACACACACACACAAACAAACATATA [CACACA_site4696]	11 ± 0.67
ATATATTATATAAAGTGTACAAAAAAAATATATAAA [XGTACX_site8065]	11.2 ± 0.72
TAATTATGCAGACACACACACACACCCAACTAAAAA [CACACA_site2569]	10.3 ± 0.23
TATTTATTGTGATACTTATATTACTTAATGATTAAA [CACACA_negctrl_site676]	10.2 ± 0.33
TTTCTTGCTACATGAAGTACACTTTCTATGACTCGT [XGTACX_site5583]	11.5 ± 0.76
ATTAATAAGAAATATACACACATGGATAAATACATA [CACACA_site1872]	9.975 ± 0.007
TGTGTTCAGTATTGCACACACACAACAAAATAAAAA [CACACA_site8017]	10.4 ± 0.33
ATATATATTTTATTCACACATAAGATTATAAAACAT [CACACA_site5369]	9.86 ± 0.071
TATGATATAATTATGTGTACACAATTTTTTTTTTTT [XGTACX_site1084]	11.6 ± 0.8

Sequence	gcPBM binding intensity (ln)
AAAAAAAAGGAAATAACACACATGTATTTATTTATA [CACACA_site4966]	9.905 ± 0.021
CGATACTTTAGGTGTACACAAATATACATGAATGAG [CACACA_site5189]	11.6 ± 0.84
CTTTAAAACCGGTACTGTACACATAGTATTATTATC [XGTACX_site2602]	11.6 ± 0.8
ATAATAATAATATAACCAAGGAAATATAATATTTGT [XGTACX_negctrl_site485]	10 ± 0.099
TTATTATAAATGTTTTGTACGTACATCCGAAAATAA [XGTACX_site2175]	11.7 ± 1.2
TATAATCATATTAAGGGTACATATGTGTAAATATTT [XGTACX_site6018]	11.2 ± 0.65
AAAAATAAAAAAAGCACACACATATATATATATATA [CACACA_site1885]	10.2 ± 0.69
AAAAAAAAATTATTCACACATATATATATATATATA [CACACA_site5579]	9.9 ± 0.46
GAACCATAAGGAACGACACACAAAGATAAATAAATA [CACACA_site3472]	10.06 ± 0.099
AAACAATCTAAAAGTAGTACAATAAAAATATATATA [XGTACX_site5607]	11.5 ± 1.1
AAATTTGCTTTTATTTTACACACTTGCTCCTGTTGT [CACACA_site8276]	10.04 ± 0.064
ATAATATTTTAATGCACACACACAAAAAAAAAAAAA [CACACA_site2891]	10.2 ± 0.46
AATATTTTATTTTGGGTGCAAAAGAATATTATTTCA	10.1 ± 0.3
TATATATATATATTACGTACATAGAACTTTATAAAA [XGTACX_site4485]	11.5 ± 0.98
TGATATTTACAAATATTAAGATCTTATATTTTTTTT [CACACA_negctrl_site617]	9.48 ± 0.28
GTGTGAAACATAAACACACACAAAAAGAAAAAATAG [CACACA_site1227]	10.02 ± 0.035
AATATAAATATTAAAACACACATAAAAAGATTATTA [CACACA_site1764]	9.725 ± 0.078
TATTACATAATACAAAGTACATATATTTTTTTATTT [XGTACX_site7061]	10.9 ± 0.59
GTATATATATATATATGTACTAATTAGTAGTTTACG [XGTACX_site6274]	11 ± 0.56
ATATTTATACATAAATGTACTTTTATATATTTAATA [XGTACX_site3020]	11.1 ± 0.8
AATATTATAAATGATACACACTTAAAATACACGCAC [CACACA_site7305]	10.4 ± 0.31
AGCACATATATATTATGTACATATAACTTCCCAGTG [XGTACX_site7095]	11.2 ± 0.62
ATTTATTAATATCCCAGTACTCATGGGGAATAATGA [XGTACX_site4014]	11.1 ± 0.74

Sequence	gcPBM binding intensity (ln)
AATATATAATATATATGTACTTATATATAAAAGATA [XGTACX_site7635]	11.3 ± 0.81
TTGTGTAAAGGTATTATTGTATTATTCAAAATAAAA [XGTACX_negctrl_site167]	10.1 ± 0.4
TTAAAGCACCCATGCACACACACAAAGGAAAAGAAA [CACACA_site233]	10.3 ± 0.46
CATATATATTTGTTCACACACACACTAATAAAAAAA [CACACA_site8787]	10.4 ± 0.3
TGGAGGAACCTCATATGTACGTATAAATATATATTT [XGTACX_site5603]	11.6 ± 1.1
ACAATAAACATATATACACACACAAAAAAAAAAACA [CACACA_site8033]	10.1 ± 0.47
ATCAAATAGAGACACACACACCTAAACATAAAAGAA [CACACA_site7321]	10.1 ± 0.2
TGATAAATTAAAAATTGTACTATTATAATAATATAT [XGTACX_site6615]	10.8 ± 0.61
TTTATATAAATTTATTCACACAACTAATTTTTTAAA [CACACA_site4848]	9.8 ± 0.12
GGGGGAATTTACATGGGTACACATGTATTAAAAAAT [XGTACX_site4130]	11.6 ± 1
TTTTTCTTACATGAGTGTACACACTTTTTTTCAGAA [XGTACX_site138]	11.7 ± 0.83
CATCTTATATAATCATGTACATATAGAGACTTCTTT [XGTACX_site7685]	11.1 ± 0.63
TTATATGTATGGAGGTTTTTGTATATAGATATATAG [CACACA_negctrl_site177]	9.81 ± 0.028
ATGTCATATAATAGTACACACATGAAAATATAAATA [CACACA_site3215]	11.4 ± 0.95
ATAAAAAAAGGACACACACACATATATTTATTTATA [CACACA_site7438]	11.4 ± 0.97
AAAAAAAAAAAAAATAGTACAATACCCAAATATAAC [XGTACX_site6684]	11.3 ± 0.74
AATATAAACAAACACACACACATATATATATATATT [CACACA_site5592]	9.97 ± 0.085
ACGCTACATAAATACGTGCACATCTTTTTGTGTATA [GTGCAC_site9675]	10.5 ± 0.29
ACTATTAAAATGAATACACACAAATATAAAAATATA [CACACA_site4145]	10.06 ± 0.071
GGTAGGGATTATACCACACACACATACACATAAATA [CACACA_site3179]	10.4 ± 0.4
